The list shows a part of the results.
System: T1, C. trachomatis L2/434/Bu expressing GFP (CTL2-GFP)
T1 construct: L2/434/Bu GFP intracellular growth in HeLa cells
Parameters: species or system HeLa; C. trachomatis total inclusion area by high-content imaging, normalised to DMSO
Settings: total inclusion area; 28.5 h, 10 µM; inhibitor
Procedure, shortened: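 Bulk GFP and resorufin signals were read first. Wells were then fixed, stained with Hoechst and imaged to detect GFP inclusions and host nuclei. MICs followed the previously described calculation.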

SMILES	% of control remaining
CN(C)c1cccc(-c2nc(-c3cccs3)cnc2N)c1 [CBK063979]	94.4285
Cc1nn(C)cc1CN(Cc1cccc(F)c1)CC1CCCO1 (centres unmarked) [CBK283013]	95.2013
FC(F)(F)c1ccc(N2CCNCC2)nc1OCc1ccc2c(c1)OCCO2 [CBK003994A]	29.9028
CCC(=O)NCc1csc(-c2ccccc2)n1 [CBK092344]	111.872
COc1csc(C(=O)Nc2ncn(CC(=O)N3CCCCCC3)n2)c1 [CBK304463]	38.6317
CC[C@H](Cn1c(=O)oc2ccccc21)NC(=O)c1ccco1 [CBK284541]	66.7261
Cc1ccc(S(=O)(=O)N2Cc3ccccc3CC2C(=O)Nc2sc3c(c2C#N)CCCC3)cc1 (centres unmarked) [CBK266313]	108.442
FC(F)(F)c1ccc(CN2CCN(c3nccnc3OCC3COc4ccccc4O3)CC2)cc1 (centres unmarked) [CBK082789T]	59.459
O=S(=O)(Nc1ccc2cc(Br)cnc2n1)c1cccc2nsnc12 [CBK073894]	74.3356
CCc1nc2c(OCC(=O)N3CCOCC3)cccn2c1N(C)C(=O)c1ccco1 [CBK147436]	86.9005
CC(Cn1cc(Cl)cn1)C(=O)NCCN(C)C1CCCCC1 (centres unmarked) [CBK282041]	87.0691
CCN(Cc1ccccc1)C(=O)NCc1cnc(C)cn1 [CBK155218]	93.833
Cc1nnc(SCC(=O)N/N=C/c2ccc(-c3ccc(Br)cc3)o2)n1-c1ccccc1 [CBK262769]	120.673
CC1(C)COC(=O)N1C1CCN(C(=O)CCS/C=C\c2ccccc2)CC1 [CBK045134]	104.502
CCc1nc2ccc(C(=O)NC3=NC(=O)CS3)cn2c1N(CC)C(C)=O [CBK145839]	125.342
c1ccc2sc(-n3cncn3)nc2c1 [CBK027022]	94.1829
COc1cc(NC(=O)CCc2ccccc2)nc(OC)n1 [CBK072282]	82.5509
CN1CCCCC/C1=N/C(=S)CN1CCCC1=S [CBK009052]	81.1795
O=C(NC(c1ccccc1)c1ccco1)C1CCN(C(=S)NCCc2ccccc2)CC1 (centres unmarked) [CBK060412]	102.459
Cc1cccc(NC(=O)CN2C(=O)S/C(=C\c3cc(C)n(-c4cc(C)ccn4)c3C)C2=O)c1 [CBK264671]	97.1306
CCc1nn(CCC(C)O)c(=O)c2cc3sc(C)cc3n12 (centres unmarked) [CBK282869]	118.924
Cc1nn(C(C)CC(=O)NCc2ccco2)c(C)c1Br (centres unmarked) [CBK269797]	78.1758
FC(F)(F)c1nc2ccccc2nc1SCc1ccco1 [CBK107201]	89.2663
CS(=O)(=O)c1cccc(S(=O)(=O)N2CCN(Cc3ccccc3)CC2)c1 [CBK269747]	86.9371
COCCN(C(=O)CCC(=O)NCCc1ccccc1)C1CCN(C)CC1 [CBK014576]	90.3472
COC(=O)c1ccsc1NS(=O)(=O)c1ccc(Oc2ccccc2)cc1 [CBK039064]	63.5403
O=C(Nc1ccc(F)c(F)c1)c1cnc2sccn2c1=O [CBK287450]	95.0578

SMILES	% of control remaining
CCC1CNCCN1c1nccnc1OCCOc1cccnc1 (centres unmarked) [CBK001559F]	78.2026
O=C(NCc1c(Cl)cccc1Cl)N1CCCC(CO)C1 (centres unmarked) [CBK156054]	71.8867
CC(=O)c1sc2nc(C)cc(C)c2c1N [CBK131882]	110.853
CC(C)NC(=O)c1cc(C2CN(C(=O)CCc3ccccc3F)CCO2)nc2ccccc12 (centres unmarked) [CBK285893]	94.1011
COC(=O)c1ccsc1NS(=O)(=O)Cc1ccccc1 [CBK039067]	106.143
CC(C)Nc1nc(NC(C)C)nc(N(C)C(N)=O)n1 [CBK027732]	123.812
CS(=O)(=O)Nc1nccnc1OC1CCNCC1 [CBK074265T]	114.251
Cc1ccc(S(=O)(=O)NCCNc2ccc(Cl)cc2[N+](=O)[O-])cc1 [CBK263784]	67.0956
COc1ccc(CCNc2ccccc2[N+](=O)[O-])cc1OC [CBK074819]	76.0104
COC(=O)COc1ccc2cccc(-n3cnnn3)c2c1 [CBK270173]	105.457
COc1ccc(C(=O)N2C[C@@H]3C[C@H](C2)c2ccc(-c4cccnc4)c(=O)n2C3)cc1 [CBK289182]	88.9486
CC(C)(C)c1nnc(NCc2ccccc2)s1 [CBK074922]	54.9405
Cc1cc(C(=O)N2CCCC2c2ccc[nH]2)c2c(C)noc2n1 (centres unmarked) [CBK305245]	63.5581
Cc1ccc(C(C)C)cc1OCC(=O)N/N=C\c1cc([N+](=O)[O-])ccc1O [CBK261206]	83.8772
CCOC(=O)CN1CCCN(c2nccc(OCC3COc4ccccc4O3)n2)CC1 (centres unmarked) [CBK083975]	73.288
CCn1nc(C)c(C(C)NC(=O)c2c3c(nn2CC)CCCC3)c1C (centres unmarked) [CBK282077]	91.6685
CN(C)S(=O)(=O)N1CCN(c2ccnc3cc(Cl)ccc23)CC1 [CBK269785]	93.3615
O=C(O)c1ccc(CNC(=S)NCC2CCCO2)cc1 (centres unmarked) [CBK266908]	90.6691
CCNC(=O)Nc1ccc2c(-c3cccc(C(F)(F)F)c3)ccnc2n1 [CBK070678]	104.157
COC(=O)C1(Cc2cc(-c3ccccc3F)no2)CCOCC1 [CBK285182]	93.3133
COc1ccc(NC(=O)c2c(C)[nH]c(=O)[nH]c2=S)cc1OC [CBK115517]	110.4
O=C(O)CSc1nc2cc(Cl)c(Cl)cc2nc1N1CCCC1 [CBK107863]	96.3892
CN1CCC(Cc2nc(CC3CCCOC3)n(CC(F)(F)F)n2)CC1 (centres unmarked) [CBK306801]	89.4432
O=C1N/C(=N\c2ccccn2)SC1Cc1ccc(Br)cc1 (centres unmarked) [CBK263109]	102.722
Nc1ccc(NC(=O)c2ccc(NC(=O)c3cnc(-c4ccccc4)c(-c4ccncc4)c3)cc2)cc1 [CBK037463]	86.7528
COc1ccccc1N1CCN(C(=O)c2snnc2C)CC1 [CBK057792]	59.9902
C=CCNC(=O)c1cc(Br)cnc1NCC1CC1 [CBK076424]	125.203

SMILES	% of control remaining
O=C(NC1CC1)c1ccc(-c2cnc3[nH]c(=O)n(CC4CCOCC4)c3n2)cc1 [CBK064890]	112.327
O=C(c1cc(S(=O)(=O)N2CCCCC2)c(Cl)cc1N1CCOCC1)N1CCOCC1 [CBK263400]	63.9882
O=C(COc1ccccc1)N1CCC(Oc2nccnc2OCc2ccc(Cl)c(Cl)c2)CC1 [CBK160718]	74.6972
COCCCOc1nc2ccccc2nc1C(F)(F)F [CBK115803]	88.1071
O=C(O)C(Cc1cc2ccccc2[nH]1)N1C(=O)C2CC=C(Cl)CC2C1=O (centres unmarked) [CBK266216]	107.748
O=C(c1cc(C(F)(F)F)cc(C(F)(F)F)c1)N1CCC(O)(c2ccc(Cl)cc2)CC1 [CBK061972]	95.5603
Cc1nc2nc(N)nn2c(C)c1CCC(=O)NCc1ccccc1F [CBK305860]	23.8038
O=C(c1ccco1)N1CCC(c2onc3c2CCCCC3)CC1 [CBK284486]	94.5722
O=C1NCCNC(=O)C2(C/C=C/COc3ccccc31)CCCN(Cc1cscn1)C2 (centres unmarked) [CBK292125]	92.3339
COc1ccc(C(=O)N2CC[C@H]3CC(=O)N(CCN4CCNC4=O)CC[C@H]3C2)cc1 [CBK288795]	78.9029
CN1C[C@H](C(N)=O)[C@@H](c2ccc(CN(C)C(=O)c3cccc(Oc4ccccc4)c3)cc2)C1 [CBK285572]	101.465
CC(C)(CNC(=O)c1ccc(=O)n(CC(=O)NC2CCCCC2)c1)c1ccccc1F [CBK285983]	96.7224
O=C(CSc1ncnc2sc3c(c12)CCC3)Nc1nsc(-c2ccc(Cl)cc2)n1 [CBK266484]	86.5153
CCn1cc(S(=O)(=O)N2CCN(c3cccc(C(F)(F)F)c3)CC2)cn1 [CBK270328]	99.5105
Cc1c(Cl)cccc1S(=O)(=O)NC1=NC(=O)C(CC(=O)Nc2ccccc2Cl)S1 (centres unmarked) [CBK200043]	96.4301
CCOC(=O)c1[nH]c2ccccc2c1NC(=O)COc1ccc(Cl)cc1Cl [CBK160134]	87.7193
CCOC(=O)c1[nH]c(=O)[nH]c1CSc1ccccn1 [CBK027725]	131.544
Cc1ccc(NC(=O)CSc2cnn[nH]2)cc1 [CBK270136]	91.9979
O=C(O)c1ccc2c(c1)C(=O)N(c1cccc(/C=C/C(=O)c3cccc(N4C(=O)c5ccc(C(=O)O)cc5C4=O)c3)c1)C2=O [CBK261178]	98.406
COc1ccccc1-n1nc(-c2ccncc2)nc1C1CCOCC1 [CBK307229]	88.2002
CC(C)C(=O)Nc1ccc2[nH]cc(C(C(=O)O)N3CCN(c4ccccc4)CC3)c2c1 (centres unmarked) [CBK286645]	101.851
CN(CCN(C)C(=O)c1cc2sccc2[nH]1)CC(F)F [CBK306014]	117.929
O=C(Nc1ccc(F)cc1)c1cccc(NS(=O)(=O)c2cc(Br)c(Cl)s2)c1 [CBK050410]	111.941
O=C(NCCc1c[nH]cn1)N1CCN(Cc2ccccc2)CC1 [CBK155629]	94.86
O=C(c1ccc(-c2cncc(-c3ccc(O)cc3)n2)cc1Cl)N1CCOCC1 [CBK123790]	93.6935
CCC(CN1CCN(C)CC1)NC(=O)C1(c2cccc(F)c2)CC1 (centres unmarked) [CBK282786]	75.5577
